The campaign covered roughly 150,000 compounds. About 540 (0.36%) showed an effect of 50% or more. Some of the results follow.

In this assay the test system is Plasmodium falciparum. The assay is described as follows: Primary screen in NF54 nanoGlo assay, in single point, at 2uM, 72h; a lower Z score goes with more inhibition. The format is functional, Erythrocyte. The note with it: timepoint 72 hour.
On to `COC(=O)c1ccc(NC(=O)N[C@@H](C)CC#N)cc1Cl`, for which the “% Inhibition” value is -9% and the Z score stood at 1.51.
For `CC(c1ccc(Cl)cc1)C(C)N(C)C(=O)CCN` (configuration not stated) the same measures were -3% and 0.45.
On the same counts, the results for `O=C(NCC[C@H]1CCCCO1)c1cccc(OC(F)F)c1` are -6% and 0.75.
On to `CC#CCN1C(=O)C(=O)N(C2CCCCC2)C1=O`, for which the “% Inhibition” value is -4% and the Z score is reported as 0.6.
Consider `COCCC1(C(=O)N[C@H]2CCN(c3nc(C)cc(=O)[nH]3)C2)CCCC1`, for which the “% Inhibition” value was -5% and the Z score stood at 0.79.
`CCC(NCc1nnc(C)s1)C1CCOC1` (configuration not stated): the “% Inhibition” value is -8% and the Z score was found to be 0.75.
For `NC(=O)CCNC(=O)C1CC12CCc1cc(Br)ccc12` (configuration not stated) the same measures were -6% and 0.56.
As for `Cn1c(O)cc(=O)c2cccc(OC[C@H](O)C(C)(C)O)c21`, the “% Inhibition” value is given as -6% and the Z score stood at 0.58.
For `Cc1cc(C)c(CNC(=O)c2ccccc2OCc2csc(C)n2)c(=O)[nH]1` the same measures were -7% and 0.64.
Consider `COCCN1C(=O)CC[C@]2(C(=O)Nc3ccc4c(c3)OCCO4)CCCC=C12`, for which the “% Inhibition” value is listed as -8% and the Z score is 0.8.
On to `CCCc1ncc(C(=O)Nc2cnns2)s1`, for which the “% Inhibition” value is listed as -12% and the Z score worked out at 2.17.
With `O=C(Cc1nc(Cc2ccc(F)cc2)n[nH]1)NCc1cccc(Cl)c1`, the “% Inhibition” value is -6% and the Z score is 0.73.
Take `Cc1cnc(CN2CC(c3ccccc3Cl)OCC2C)cn1` (configuration not stated): the “% Inhibition” value is -5% and the Z score turned out to be 1.01.
Regarding `COc1ccc(-c2nnc(-c3cc(OC)c4c(c3)OCO4)[nH]2)cc1O`, the “% Inhibition” value came to 3% and the Z score was -0.38.
`Cc1nc(C)c(CC(=O)N(C)CCn2cccn2)s1`: the “% Inhibition” value is recorded as 3% and the Z score is -0.44.
`COc1cc2c(cc1OC)CN(C(=O)C[C@H]1CCCO1)CC2`: the “% Inhibition” value is given as 2% and the Z score is on record as -0.26.
For `CC1(C)COCCN1CC1=Nc2ccccc2S(=O)(=O)N1` the same measures were -3% and 0.41.
With `CC(C)n1ccnc1CN1CCN2CCCC[C@H]2C1`, the “% Inhibition” value was -14% and the Z score came to 1.39.
`O=S(=O)(c1ccc(N2CCC(c3nc4ccccc4s3)CC2)cc1)C(F)F`: the “% Inhibition” value is recorded as 4% and the Z score is given as -0.57.
For `CC(C)(C)C(=O)NCCN1CCOCC1` the same measures were -9% and 1.12.
As for `COC[C@@H]1C[C@@H](OC)CN1c1nc(N)c2cnn(C)c2n1`, the “% Inhibition” value is on record as -2% and the Z score was 0.24.
As for `O=C1COc2c(F)cc(NC(=O)N3CCCCCC3)cc2N1`, the “% Inhibition” value was -15% and the Z score was 1.8.
As for `Cc1ccc(CNC(=O)Cc2cn(C)c3ncccc23)cc1`, the “% Inhibition” value is on record as -16% and the Z score is reported as 1.9.
For the compound `Cn1nc(-c2ccc(C(N)=O)c(Cl)c2)nc1N1CCCCC1`, the “% Inhibition” value came out at 5% and the Z score is recorded as -0.77.
For `CCCC[C@H]1CN(c2cccc(-c3ccccc3)c2)C(=O)CN1C(=O)CNC` the same measures were -5% and 0.78.
On the same counts, the results for `O=C(O)C1(NCc2cc(-c3ccc(Cl)cc3)no2)CCCC1` are 11% and -1.27.
With `Cc1ccc([C@H](CNC(=O)c2ccco2)N2CCCCC2)cc1`, the “% Inhibition” value was -6% and the Z score turned out to be 1.15.
As to `O=C(CN1CCCCC1=O)N1CCC[C@H](O)CC1`, the “% Inhibition” value came out at 11% and the Z score is given as -1.17.
`O=C(CCc1conc1-c1ccc(F)cc1)NCc1ccc(F)cc1`: the “% Inhibition” value is -4% and the Z score is listed as 0.64.
On to `N#Cc1ccc(F)cc1CN1CCC[C@H](c2nncn2C2CC2)C1`, for which the “% Inhibition” value is recorded as -16% and the Z score was 1.41.
In the case of `CC(C)(C)COC(=O)N1CCC2(CCC(=O)N(CCc3ccncc3)C2)CC1`, the “% Inhibition” value is given as 4% and the Z score is given as -0.56.
Turning to `O=C([C@@H]1CCCO1)N1CCC(n2cc(CN3CCCCC3)nn2)CC1`, the “% Inhibition” value is given as -18% and the Z score is reported as 1.59.
For `O=C(c1ccc(Br)cc1)N1CCC[C@H]1c1nc2ccccc2s1`, the “% Inhibition” value worked out at 9% and the Z score is -1.16.
Consider `Cc1nn(C)c(C)c1S(=O)(=O)N1CCCN(c2ccc(C#N)cc2)CC1`, for which the “% Inhibition” value was determined as 3% and the Z score is on record as -0.5.
`Cn1nc2c(c1C(=O)N1C[C@@H]3[C@H](C1)[C@H]3NC(=O)CCC1CCC1)CCC2`: the “% Inhibition” value is -9% and the Z score is 1.37.
In the case of `c1cncc(COc2ccc(CN[C@H]3CCc4ncnn4C3)cc2)c1`, the “% Inhibition” value was found to be 1% and the Z score was -0.17.
As for `CC#CCn1ccnc1-c1cccs1`, the “% Inhibition” value was -15% and the Z score is given as 2.38.
On to `Cc1cc(NC(=O)OC(C)(C)C)sc1C`, for which the “% Inhibition” value is on record as -2% and the Z score is 0.26.
For `CC(C)Cc1nnc(C(C)NC2CCN(S(C)(=O)=O)CC2C)o1` (configuration not stated), the “% Inhibition” value is listed as -1% and the Z score was 0.1.
For `O=C(COCC1CCCC1)NCC(=O)N1Cc2ccccc2C1`, the “% Inhibition” value is reported as 2% and the Z score is listed as -0.32.
For `CCn1c(=O)c(C(=O)NCCOC)nn(-c2ccc(Cl)cc2)c1=O`, the “% Inhibition” value is given as 6% and the Z score is -0.72.
On the same counts, the results for `CC(C)[C@H]1CN(c2nccc(N)n2)C[C@@H]1NC(=O)CCS(C)(=O)=O` are 0% and -0.07.
`O=C([C@@H]1NCCc2[nH]cnc21)N1CCN(C/C=C/c2ccccc2)CC1`: the “% Inhibition” value turned out to be 2% and the Z score was -0.46.
Take `Cn1nc(C(=O)NC(c2ccccc2)c2ccccc2)c2ccccc2c1=O`: the “% Inhibition” value was -2% and the Z score is 0.29.
`Cc1cccc(NC(=O)Nc2ccc(NC(=O)c3ccco3)cc2)c1`: the “% Inhibition” value is 3% and the Z score is -0.42.
Turning to `Cc1ccccc1C(=O)N1CCc2cc(S(=O)(=O)N3CCOCC3)ccc21`, the “% Inhibition” value was -1% and the Z score came out at 0.08.
For `Cc1cccc(NC(=O)Cn2c(=O)n(C(C)C)c(=O)c3nscc32)c1` the same measures were 5% and -0.61.
Regarding `O=C1CCc2cc(F)cc(NC(=O)NC[C@@H](c3ccco3)N3CCCC3)c2N1`, the “% Inhibition” value is recorded as -3% and the Z score is 0.57.
`CCn1c([C@H]2CCCNC2)nn(Cc2cc(F)ccc2C)c1=O`: the “% Inhibition” value is -3% and the Z score turned out to be 0.54.
In the case of `O=C(C1=NN(c2ccccc2)C(=O)CC1)N1CCCc2ccccc21`, the “% Inhibition” value is on record as -7% and the Z score amounted to 0.85.
As for `CCOc1ccc2c(c1)[C@@H](NS(=O)(=O)Cc1ccccc1C)CCO2`, the “% Inhibition” value was -5% and the Z score is given as 0.74.
Regarding `O=C(CCNS(=O)(=O)c1ccc(Cl)cc1)N1CCCCCC1`, the “% Inhibition” value is given as -20% and the Z score is on record as 3.43.
On to `Cc1nn(C)c(C)c1CN(CCO)Cc1cc(O)c2cccc(F)c2n1`, for which the “% Inhibition” value is reported as -15% and the Z score came to 1.9.
As for `C[C@H]1CCCCN1c1nnc(C(=O)NCCc2ccccc2)c2ccccc12`, the “% Inhibition” value is given as -9% and the Z score is given as 1.04.
On the same counts, the results for `O=C(C[C@H]1CCCOC1)N1CCC2(CC1)Cc1cccc(c1)Oc1cccc(c1)CCNC2=O` are -7% and 1.29.
On the same counts, the results for `CCOc1cccc(C(=O)N(C)c2ccc(-c3ccccc3)nn2)c1` are -9% and 1.19.
Turning to `O=C(Nc1cnn(Cc2cc(F)ccc2Cl)c1)[C@@H](O)C1CCOCC1`, the “% Inhibition” value was -6% and the Z score turned out to be 1.13.
As to `O=C(Cc1ccc(Cn2c(=O)[nH]c3ccsc3c2=O)cc1)N1CCN(c2ccc(F)cc2)CC1`, the “% Inhibition” value was 25% and the Z score was -2.86.
As for `O=C1CC(CC(=O)N2CC3CCC2C3)(c2ccccc2)C(=O)N1CCc1ccccn1` (configuration not stated), the “% Inhibition” value was determined as 5% and the Z score is -0.61.
For `CCC[C@@H](CC(=O)O)NC(=O)c1cncc(F)c1` the same measures were -11% and 2.06.
With `COc1cc(CS(=O)(=O)[C@@H](C)c2ccc3c(c2)CCC3)ccn1`, the “% Inhibition” value was -1% and the Z score is recorded as 0.17.
As for `O=C(CCc1ccc2c(c1)OCO2)N1CCN(c2ccccc2O)CC1`, the “% Inhibition” value is -6% and the Z score was determined as 1.07.
For `O=C(Nc1ccc2[nH]c(=O)[nH]c2c1)c1cccs1`, the “% Inhibition” value is -1% and the Z score turned out to be 0.2.
For `Cc1cn2cc(C(=O)NCCN3CC[C@H](c4ccccc4C)C3)ccc2n1`, the “% Inhibition” value is 4% and the Z score is given as -0.59.
On the same counts, the results for `CCn1nccc1[C@@H]1CCCN1S(=O)(=O)c1ccc(Br)cc1` are -1% and 0.22.
For `Cc1cc(NC(=O)NC[C@H]2CCC3(CCC3)CO2)cnc1C(F)F` the same measures were -8% and 1.07.
With `Cc1ncccc1NC(=O)C12CCC(C(F)(F)F)(CC1)CC2`, the “% Inhibition” value is given as -2% and the Z score was 0.35.
As for `O=C(CN1CCCCC1=O)Nc1ccc(OC2CCC2)c(F)c1`, the “% Inhibition” value was -8% and the Z score is recorded as 1.6.
For `COc1ccc(Nc2nc(-c3cccc(Cl)c3)c3c(n2)-c2ccccc2OC3)cc1`, the “% Inhibition” value is -9% and the Z score worked out at 1.3.
As to `CN(C)C(=O)CCN(CCO)Cc1cc(Br)ccc1F`, the “% Inhibition” value is -5% and the Z score is listed as 0.69.
As to `COc1ccc(-n2cnnc2C(c2ccccc2)c2ccccc2)cc1`, the “% Inhibition” value was 7% and the Z score is given as -0.89.
On to `O=S(=O)(c1ccc(N2CCCCC2)nc1)N1CCCC1`, for which the “% Inhibition” value is -8% and the Z score is 1.23.
Turning to `CN1CCC(n2nc([C@H]3CCOC3)nc2C2CC=CC2)CC1`, the “% Inhibition” value is reported as -10% and the Z score is on record as 1.88.
For `CCCn1cnnc1CNC(=O)c1cc(Cn2nc(C)cc2C)[nH]n1` the same measures were -13% and 2.69.
In the case of `CCc1ccc([C@@H]2CCCN2c2nc(N)nc(C3CC3)n2)o1`, the “% Inhibition” value is reported as -2% and the Z score is 0.29.
`CC1(C)C(=O)NCCN1C(=O)C[C@@H](c1ccc(O)cc1)c1ccccc1O`: the “% Inhibition” value came to 12% and the Z score is -1.56.
Turning to `CCC(Oc1ccc2c(c1)C(c1ccc(F)cc1)N(C(=O)C(C)(C)C)CC2)C(=O)NCC1CCCO1` (configuration not stated), the “% Inhibition” value stood at 2% and the Z score is -0.37.
In the case of `Cc1cccc2c(=O)n(CC(=O)NCc3ccc(N4CCN(C)CC4)nc3)cnc12`, the “% Inhibition” value is -9% and the Z score was 0.84.
For `Cc1c(CC(=O)N2CCc3nc[nH]c3C23CCC3)cnn1C` the same measures were -7% and 0.95.
Take `N#Cc1cc(Oc2nc3ccccc3s2)c(N2CCOCC2)cc1C#N`: the “% Inhibition” value came out at 6% and the Z score is given as -0.73.
With `COc1ccc(-c2cncc(CN3CCN(C)CC3)c2)cc1OC`, the “% Inhibition” value is on record as -5% and the Z score was determined as 0.7.
Regarding `COc1cncc(S(=O)(=O)NC2(c3ccccc3F)COC2)c1`, the “% Inhibition” value worked out at 18% and the Z score is on record as -2.34.
Consider `Cn1cnc2c3ccccc3n(Cc3ccccc3)c2c1=O`, for which the “% Inhibition” value is -8% and the Z score was 1.6.
On to `CCOc1ccc(NC(=O)CC2C(=O)NC3CCCCC3N2C(=O)C(C)C)cc1` (configuration not stated), for which the “% Inhibition” value is reported as -17% and the Z score is on record as 2.26.
Take `Cc1cc(C(=O)N2CCC[C@@]3(CCC(=O)N(Cc4cccnc4)C3)C2)n(C)n1`: the “% Inhibition” value is on record as -16% and the Z score is listed as 1.78.
Regarding `CCn1nccc1C(=O)N1CCCC[C@@]1(C)c1noc(C2CC2)n1`, the “% Inhibition” value turned out to be 31% and the Z score is -3.56.

Usually % Inhibition stands for the relative decrease from the control value, in per cent.

These data come from ChEMBL document CHEMBL4888484, “Replenishing the malaria drug discovery pipeline: Screening and hit evaluation of the MMV Hit Generation Library 1 (HGL1) against asexual blood stage Plasmodium falciparum ,using a nano luciferase reporter read-out” (2022).
